The campaign covered roughly 410,000 compounds. About 6,400 (1.6%) were called active. The inconclusive results got no clear call from the source; some entries with a clear call stand among them for comparison. Calls come from the whole dose curve; as a rule, active = well fitted inhibition curve with a large enough effect; inconclusive = small, poorly fitted or top-dose-only effect; inactive = no such curve, though single readings can be large or run the other way. Potencies of inconclusive entries are left out as doubtful fits.
target: Glucagon-like peptide 1 receptor (Homo sapiens) (UniProt P43220); assay: qHTS of GLP-1 Receptor Inverse Agonists (Inhibition Mode); settings: HEK293 GLP-1R CRE-luciferase, luminescence, 24 h, GLP-1R form is constitutively active; activity change, negative = inhibition: at 38.3 µM (top of the series) unless noted; note: nearly all actives have a fitted effect of over 55% in size
In short: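 Assay principle: reduced luminescence from a cAMP-responsive reporter in HEK293 cells co-expressing a constitutively active GLP-1R. Conditions: 24 hr compound incubation, 37 deg C, 5% CO2.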
% is set by controls: 0 for no effect and ±100 for the full control effect; potency is the fitted concentration of half-maximal effect; tags give direction and shape of the fitted curve.

Sequence of UniProt P43220 (P43220 whole entry, looked up): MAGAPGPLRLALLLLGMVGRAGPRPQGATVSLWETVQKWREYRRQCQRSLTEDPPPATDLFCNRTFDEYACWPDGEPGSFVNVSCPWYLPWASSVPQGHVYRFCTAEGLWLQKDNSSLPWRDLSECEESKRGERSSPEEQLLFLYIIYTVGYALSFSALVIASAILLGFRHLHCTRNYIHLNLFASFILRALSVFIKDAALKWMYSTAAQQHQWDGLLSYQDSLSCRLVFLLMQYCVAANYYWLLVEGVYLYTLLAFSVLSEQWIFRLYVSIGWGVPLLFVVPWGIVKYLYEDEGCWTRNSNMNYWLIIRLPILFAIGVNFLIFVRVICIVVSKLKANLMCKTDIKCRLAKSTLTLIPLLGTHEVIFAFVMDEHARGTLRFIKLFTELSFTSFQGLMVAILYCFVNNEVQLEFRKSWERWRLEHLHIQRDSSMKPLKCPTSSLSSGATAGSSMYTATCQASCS

Row | Structure (SMILES) | Potency | activity change, negative = inhibition
1 | Cc1ccc(NC2=C/C(=N/S(=O)(=O)c3cccs3)c3ccccc3C2=O)cc1 | inconclusive [inhibitor, single point] | 
2 | CCCCN(CCCNC(=O)CN1N=C(c2ccc(C)cc2)CCC1=O)c1ccccc1 | active: 12.6 µM | 
3 | Cc1cccc(NC(=S)N2CCN(Cc3ccccc3)CC2)c1C | inconclusive [inhibitor, partial curve, poor fit] | 
4 | CC1CCCCN1C(=O)Cn1ncc2c3ccccc3n(Cc3ccccc3F)c2c1=O (configuration not stated) | inconclusive [inhibitor, full curve, poor fit] | 
5 | CN(C)CCCNC(=O)/C(=C\c1ccc(-c2cccc([N+](=O)[O-])c2)o1)NC(=O)c1ccccc1 | inconclusive [inhibitor, partial curve, poor fit] | 
6 | COc1ccccc1CNC(=O)CCC(=O)N1CCOc2ccc(Cl)cc21 | inconclusive [inhibitor, single point] | 
7 | O=C(c1ccc(S(=O)(=O)N2CCCCC2)cc1)N1CCc2ccccc2C1 | inconclusive [inhibitor, partial curve, poor fit] | 
8 | NS(=O)(=O)c1ccc(N=NN2CCCCC2)cc1 |  | inactive: 2.33%
9 | Cc1cc(N2CCN(S(=O)(=O)c3ccc(Cl)cc3)CC2)c2ccccc2n1 | inconclusive [inhibitor, partial curve, poor fit] | 
10 | CC(OC(=O)CN1C(=O)NC2(CCCC2)C1=O)c1ccc(F)cc1 (configuration not stated) | inconclusive [inhibitor, partial curve, poor fit] | 
11 | COc1ccc2nc(Nc3ccccc3)sc2c1 | inconclusive [inhibitor, single point] | 
12 | COc1ccc(S(=O)(=O)Oc2cccc(C(=S)N3CCOCC3)c2)cc1 | inconclusive [inhibitor, single point] | 
13 | COc1ccc(N2CC(C(=O)Nc3c4c(nn3-c3ccccc3)CS(=O)(=O)C4)CC2=O)cc1 (configuration not stated) | inconclusive [inhibitor, full curve] | 
14 | O=C(c1ccc2ccccc2n1)N1CCN(Cc2c(F)cccc2Cl)CC1 | inconclusive [inhibitor, full curve, poor fit] | 
15 | Cc1ccc(NC(=O)Cn2c(=O)oc3cc(S(=O)(=O)N4CCCCC4)ccc32)c(Cl)c1 |  | inactive: -14.4%
16 | Cc1cccc(Cn2c(SCc3ccc(C(=O)NCc4ccccc4F)cc3)nc3ccncc32)c1 | inconclusive [inhibitor, single point] | 
17 | CC(C)(C)c1ccc(C(=O)NC(=S)NCc2cccnc2)cc1 | inconclusive [inhibitor, partial curve, poor fit] | 
18 | CC[C@H](C)[C@H]1O[C@]2(CC[C@@H]1C)C[C@@H]1C[C@@H](CC=C(C)[C@@H](O[C@H]3C[C@H](OC)[C@@H](O[C@H]4C[C@H](OC)[C@@H](O)[C@H](C)O4)[C@H](C)O3)[C@@H](C)C=CC=C3CO[C@@H]4[C@H](O)C(C)=C[C@@H](C(=O)O1)[C@]34O)O2 | inconclusive [inhibitor, partial curve, poor fit] | 
19 | Nc1nn(-c2ccccc2)c(N)c1N=Nc1cccc(F)c1 | inconclusive [inhibitor, partial curve, poor fit] | 
20 | CCOc1ccc(NC(=O)CN2CCCC2c2cccs2)cc1S(=O)(=O)N1CCCC1 (configuration not stated) | inconclusive [inhibitor, partial curve, poor fit] | 
21 | CCc1ccc(NC(=O)CSc2nc3ccccc3c(=O)n2CCCC(=O)N2CCCC2)cc1 | inconclusive [inhibitor, partial curve, poor fit] | 

Row | Structure (SMILES) | Potency | activity change, negative = inhibition
22 | C(#CCN1CCOCC1)COC(c1ccccc1)c1ccccc1 | inconclusive [inhibitor, partial curve] | 
23 | COc1ccccc1/C=C1\C(=O)Nc2ccccc21 | inconclusive [inhibitor, partial curve, poor fit] | 
24 | Cc1nn(C)c(C)c1CCC(=O)N1CCCC(C(=O)c2cccc(OC(C)C)c2)C1 (configuration not stated) | inconclusive [inhibitor, single point] | 
25 | CCN(CCCc1ccccc1)CCCc1ccccc1 | inconclusive [inhibitor, partial curve] | 
26 | CCOC(=O)c1c(C)[n+](-c2ccc(C)cc2)c(CC)c2cc(OC)c(OC)cc12 | inconclusive [inhibitor, single point] | 
27 | Fc1ccc(Nc2nc(-c3ccncc3)cs2)cc1 | inconclusive [inhibitor, partial curve, poor fit] | 
28 | CCn1c2ccccc2c2cc(NC(=O)COC(=O)c3cc(OC)c(OC)cc3OC)ccc21 | inconclusive [inhibitor, single point] | 
29 | COCCNC(=O)C1(C)Cc2c(-c3ccc4c(c3)OCO4)ccnc2O1 (configuration not stated) | inconclusive [inhibitor, full curve, poor fit] | 
30 | Cc1c(C(=O)NC2CCCCC2)oc2ccc(F)cc12 | inconclusive [inhibitor, single point] | 
31 | N/C(=N\OC(=O)c1ccccc1)c1ccn[nH]1 | inconclusive [inhibitor, partial curve, poor fit] | 
32 | Cc1nn(Cc2ccccc2)c(C)c1NC(=O)c1noc2c1CCc1ccccc1-2 | inconclusive [inhibitor, partial curve, poor fit] | 
33 | COc1cc(O)oc1C=Nc1ccc(Cl)cc1 |  | inactive: 0.925%
34 | CCOC(=O)C1CCCN(C(=O)Cn2ncc3c(C)n(Cc4ccccc4Cl)c(C)c3c2=O)C1 (configuration not stated) |  | inactive: -1.73%
35 | CCCc1nc2ccccc2n1CC(O)COc1ccc(C(=O)OC)cc1 (configuration not stated) |  | inactive: -2.97%
36 | CCOC(=O)C(=CNc1cc(OC)ccc1-n1cccc1)C(=O)OCC |  | inactive: 26.1%
37 | Cc1ccccc1NCC(=O)N/N=C/c1c(C)c(C(=O)c2ccc(Cl)cc2)n2ccccc12 |  | inactive: -2.55%
38 | CC1CN(C(=O)CCC(=O)Nc2cc(F)ccc2F)c2ccccc2S1 (configuration not stated) | inconclusive [inhibitor, single point] | 
39 | CCOC(=O)c1ccc(NC(=O)c2nc[nH]c2C(=O)NCC(=O)OC(C)(C)C)cc1 | inconclusive [inhibitor, single point] | 
40 | CC(O)CNCCOc1ccccc1OCc1ccccc1 (configuration not stated) | inconclusive [inhibitor, partial curve] | 
41 | NC(=O)NN=C1C2CCCC1C(c1ccccc1)NC2c1ccccc1 (configuration not stated) | inconclusive [inhibitor, single point] | 
42 | Cc1cc(C)cc(NC(=O)C(OC(=O)c2ccc(O)cc2)c2ccccc2)c1 (configuration not stated) | inconclusive [inhibitor, single point] | 

Row | Structure (SMILES) | Potency | activity change, negative = inhibition
43 | c1ccc(-c2n[nH]c(-c3ccccn3)n2)cc1 | inconclusive [inhibitor, full curve, poor fit] | 
44 | CC(C)Cc1nnc(NC(=O)C23CC4CC(CC(C4)C2)C3)s1 | inconclusive [inhibitor, full curve, poor fit] | 
45 | CC(C)C[C@@H](CN1CCCC1CN1C(=S)NC[C@@H]1Cc1ccc(O)cc1)N1C[C@H](Cc2ccccc2)N(CCc2ccccc2)C1=S (some centres not stated) | inconclusive [inhibitor, partial curve, poor fit] | 
46 | CCCOc1ccc(C(=O)NCC2OCCc3ccccc32)cc1 (configuration not stated) |  | inactive: 4.85%
47 | Cc1ccc(CNc2oc(-c3ccc(COc4ccc(C)cc4)o3)nc2C#N)cc1 |  | inactive: 11.3%
48 | O=c1c2ccccc2nc(SCc2ccc([N+](=O)[O-])cc2)n1-c1ccccc1 | inconclusive [inhibitor, partial curve, poor fit] | 
49 | Cc1ccc(OCC(=O)NCC2(N(C)C)CCCCC2)cc1C |  | inactive: -27.1%
50 | COc1ccc2nc(N3CCCCC3)c(C#N)cc2c1 | inconclusive [inhibitor, partial curve] | 
51 | COc1ccccc1N1CCN(CC(=O)Nc2ccc(C)c(F)c2)CC1 | inconclusive [inhibitor, partial curve, poor fit] | 
52 | C=CCOC(=O)C1=C(C)NC(C)=C(C(=O)OCC=C)C1c1ccco1 | active: 11.2 µM | 
53 | COc1ccc(C(C)=O)cc1COC(=O)CNC(=O)c1ccccc1F |  | inactive: 6.3%
54 | COCCNC(=S)N/N=C(\C)c1ccc2cc(OC)ccc2c1 | inconclusive [inhibitor, full curve, poor fit] | 
55 | Cn1c(CN2CCCC2)nc2cc(NS(=O)(=O)c3ccccc3)ccc21 |  | inactive: -7.52%
56 | O=C(CCN1CCN2CCCC2C1)N1c2ccccc2Sc2ccc(Cl)cc21 (configuration not stated) | inconclusive [inhibitor, partial curve, poor fit] | 
57 | Cc1ccc2nc(/C(C#N)=C\c3cc(C)n(-c4cccc([N+](=O)[O-])c4)c3C)[nH]c2c1 |  | inactive: -2.8%
58 | CCOC(=O)c1cc(-c2cccs2)nc2c1c(C)nn2-c1ccccn1 | inconclusive [inhibitor, single point] | 
59 | C/C=C(/CCC1NCCc2c1[nH]c1ccccc21)[Si](C)(C)C (configuration not stated) | inconclusive [inhibitor, partial curve, poor fit] | 
60 | CCOC(=O)C1CCN(C(=S)Nc2ccc(Cl)cc2C)CC1 | inconclusive [inhibitor, single point] | 
61 | COc1ccc(C(CNC(=O)COc2ccc(F)cc2Br)N2CCCC2)cc1 (configuration not stated) | inconclusive [inhibitor, single point] | 
62 | COc1ccc(CCNC(=O)C(=O)NCC2CCCN2S(=O)(=O)c2ccccc2)cc1 (configuration not stated) | inconclusive [inhibitor, single point] | 

Reference: PubChem BioAssay AID624417 (National Center for Advancing Translational Sciences (NCATS), 2012)
